Data published in the supplement of paper PMC12582362.
Counter-ions that a name gives are not always drawn. The whole screen tested about 1,500 compounds, of which about 30 (2%) showed activity.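 The calls were made as follows: active = robust z-score below -2; a few such results were not called.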 This is one part of the list.

Each compound was assayed on optoTopBP1 Flp-In 293 T-REx (HEK293) cells (assay: light-induced TopBP1 condensate (nuclear foci) count, plate-normalised robust z-score vs non-control wells; higher = more TopBP1 condensates (negative = condensation inhibitor), active = hit call of the paper). Conditions: 10 µM; incubation time 2 h.

SMILES | light-induced TopBP1 condensate (z-score)
CC(C)NCC(O)c1ccc(O)c(O)c1 (single isomer, unassigned; (+)) [(+)-Isoproterenol (+)-bitartrate salt] | inactive: 0.313
Cc1c(N(C)CS(=O)(=O)O)c(=O)n(-c2ccccc2)n1C [Dipyrone] | inactive: -0.0363
CC(NCCC(c1ccccc1)c1ccccc1)c1ccccc1 (stereo unspecified) [Fendiline hydrochloride] | active: -2.06
O=c1[nH]c(=O)n(C2CCCO2)cc1F (stereo unspecified) [Tegafur] | inactive: -0.488
Nc1nc2n[nH]nc2c(=O)[nH]1 [Azaguanine-8] | inactive: 0.506
CN(C)c1nc(N(C)C)nc(N(C)C)n1 [Altretamine] | inactive: -1.17
CC(C)NCC(O)c1ccc2ccccc2c1 (stereo unspecified) [Pronethalol hydrochloride] | inactive: 1.01
C[C@H]1C[C@@H]2[C@H]([C@@H](O)C[C@@]3(C)[C@H]2CC[C@]3(O)C(=O)CO)[C@@]2(C)C=CC(=O)C=C12 [Methylprednisolone, 6-alpha] | inactive: -0.268
CCCNCC(O)COc1ccccc1C(=O)CCc1ccccc1 (stereo unspecified) [Propafenone hydrochloride] | inactive: 0.972
COc1ccccc1OCC(O)CN1CCN(CC(=O)Nc2c(C)cccc2C)CC1 (stereo unspecified) [Ranolazine] | inactive: 0.709
COc1cc([C@@H]2c3cc4c(cc3[C@@H](O[C@@H]3O[C@@H]5CO[C@@H](C)O[C@H]5[C@H](O)[C@H]3O)[C@H]3COC(=O)[C@H]23)OCO4)cc(OC)c1O [Etoposide] | inactive: 2.81
COc1ccc(C2CNC(=O)C2)cc1OC1CCCC1 (stereo unspecified) [Rolipram] | inactive: -0.415
Cc1c(O)c(=O)ccn1C [Deferiprone] | inactive: 0.183
O=S(=O)(O)c1cc(O)ccc1O [Ethamsylate] | inactive: 1.5
c1ccc([C@H]2CN3CCSC3=N2)cc1 [Levamisole hydrochloride] | inactive: 0.197
CCC(=O)O[C@]1(C(=O)CCl)[C@@H](C)C[C@H]2[C@@H]3CCC4=CC(=O)C=C[C@]4(C)[C@@]3(F)[C@@H](O)C[C@@]21C [Clobetasol propionate] | inactive: 0.783
CC(C)[C@H](N)C(=O)OCC(CO)OCn1cnc2c(=O)nc(N)[nH]c21 (stereo partly specified) [Valganciclovir hydrochloride] | inactive: 0.111
O=C1OCCN1/N=C/c1ccc([N+](=O)[O-])o1 [Furazolidone] | inactive: -0.718
CCOC(=O)[C@H](CCc1ccccc1)N[C@H]1CS[C@H](c2cccs2)CN(CC(=O)O)C1=O [Temocapril] | inactive: 0.131
CCOCC(O)COc1ccc(NC(=O)CC[S+](C)C)cc1 (stereo unspecified) [Suplatast Tosylate] | inactive: 0.0275
O=C(NCC(O)CO)c1c(I)c(C(=O)NCC(O)CO)c(I)c(N(CCO)C(=O)CO)c1I (stereo unspecified) [Ioversol] | inactive: -0.193

SMILES | light-induced TopBP1 condensate (z-score)
CO/N=C(\C(=O)N[C@@H]1C(=O)N2C(C(=O)O)=C(COC(N)=O)CS[C@H]12)c1ccco1 [Cefuroxime sodium salt] | inactive: 0.693
Nc1ccc(S(=O)(=O)Nc2ccnn2-c2ccccc2)cc1 [Sulfaphenazole] | inactive: 0.611
CCC(=O)c1c(O)cc(O)cc1O [Flopropione] | inactive: 0.298
CC1Cc2ccccc2N1NC(=O)c1ccc(Cl)c(S(N)(=O)=O)c1 (stereo unspecified) [Indapamide] | inactive: -0.829
Nc1ccc2cc3ccc(N)cc3nc2c1 [Proflavine hemisulfate] | active: -6.85
Cc1cc(CC(=O)O)n(C)c1C(=O)c1ccc(Cl)cc1 [Zomepirac sodium salt] | inactive: 0.572
CC[C@H]1OC(=O)[C@H](C)[C@@H](O[C@H]2C[C@@](C)(OC)[C@@H](O)[C@H](C)O2)[C@H](C)[C@@H](O[C@@H]2O[C@H](C)C[C@H](N(C)C)[C@H]2O)[C@](C)(O)C[C@@H](C)[C@@H]2N[C@@H](COCCOC)O[C@H]([C@H]2C)[C@]1(C)O [Dirithromycin] | inactive: -0.572
O=C1CC2(CCCC2)CC(=O)N1CCCCN1CCN(c2ncccn2)CC1 [Buspirone hydrochloride] | inactive: 0.0908
Cn1cc([S+](C)[O-])c(=O)c2ccc(F)cc21 (stereo unspecified) [Flosequinan] | inactive: 0.501
C[C@H](O)C(=O)Nc1c(I)c(C(=O)NC(CO)CO)c(I)c(C(=O)NC(CO)CO)c1I [Iopamidol] | inactive: -0.464
CC(C)CC(=O)N[C@H](C(=O)N[C@H](C(=O)N[C@@H](CC(C)C)[C@@H](O)CC(=O)N[C@@H](C)C(=O)N[C@@H](CC(C)C)[C@@H](O)CC(=O)O)C(C)C)C(C)C [Pepstatin A] | inactive: 0.721
Oc1ccc(OCc2ccccc2)cc1 [Monobenzone] | active: -2.29
C[C@H]1C[C@H]2[C@@H]3CCC4=CC(=O)C=C[C@]4(C)[C@@]3(F)[C@@H](O)C[C@]2(C)[C@@]1(O)C(=O)CO [Betamethasone] | inactive: 1.46
CCCNC(C)(C)C(=O)Nc1ccccc1C [Quatacaine] | inactive: -0.106
O=C(NCCO[N+](=O)[O-])c1cccnc1 [Nicorandil] | inactive: 0.468
Cc1ccc(Cl)c(Nc2ccccc2C(=O)O)c1Cl [Meclofenamic acid sodium salt monohydrate] | inactive: -0.393
C=C1/C(=C\C=C2/CCC[C@]3(C)[C@@H]([C@H](C)/C=C/[C@@H](O)C4CC4)CC[C@@H]23)C[C@@H](O)C[C@@H]1O [Calcipotriene] | inactive: -0.251
COC(=O)Nc1nc2ccc(SC(C)C)cc2[nH]1 [Methiazole] | inactive: -1.27
CN(C)CCOc1ccc(/C(=C(/CCCl)c2ccccc2)c2ccccc2)cc1 [Toremifene] | inactive: -1.41
CCN1CCN(C(=O)N[C@@H](C(=O)N[C@@H]2C(=O)N3C(C(=O)O)=C(CSc4nnnn4C)CS[C@H]23)c2ccc(O)cc2)C(=O)C1=O [Cefoperazone dihydrate] | inactive: 0.148
